From the supplement of paper PMC8728848
The list shows a part of the results.

Key:
Assay in all cases: glycan array binding signal (z-score within array); higher = stronger binding
Details in all cases: glycan notation: IUPAC condensed, linker removed
[1] = biological target: GlcNAc(a1-4)Gal(b1-3)GlcNAc
Summary of the method: (§1)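 From the Consortium for Functional Glycomics database, 3228 arrays were curated, keeping only those whose protein sequence was available. Binding is given as a within-array Z-score averaged across arrays sharing a protein sequence and across linkers. Negative Z-scores can be read as non-binding.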

[2] = biological target: GlcNAc(a1-4)Gal(b1-4)GalNAc
Summary of the method: as §1

[3] = biological target: GlcNAc(a1-4)Gal(b1-4)GlcNAc
Summary of the method: as §1

[4] = biological target: GlcNAc(a1-4)Gal(b1-4)GlcNAc(b1-3)Gal(b1-4)Glc
Summary of the method: as §1

[5] = biological target: GlcNAc(a1-4)Gal(b1-4)GlcNAc(b1-3)Gal(b1-4)GlcNAc
Summary of the method: as §1

[6] = biological target: GlcNAc(a1-4)Gal(b1-4)GlcNAc(b1-3)Gal(b1-4)GlcNAc(b1-3)Gal(b1-4)GlcNAc
Summary of the method: as §1

[7] = biological target: GlcNAc(a1-4)Gal(b1-4)GlcNAc(b1-3)Gal(b1-4)[Fuc(a1-3)]GlcNAc(b1-3)Gal(b1-4)[Fuc(a1-3)]GlcNAc
Summary of the method: as §1

[8] = biological target: GlcNAc(a1-6)Gal(b1-4)GlcNAc
Summary of the method: as §1

[9] = biological target: GlcNAc(b1-2)Gal(b1-3)GalNAc
Summary of the method: as §1

[10] = biological target: GlcNAc(b1-2)Man(a1-3)[GlcNAc(b1-2)Man(a1-6)]Man(b1-4)GlcNAc(b1-4)GlcNAc
Summary of the method: as §1

[11] = biological target: GlcNAc(b1-2)Man(a1-3)[GlcNAc(b1-2)Man(a1-6)]Man(b1-4)GlcNAc(b1-4)[Fuc(a1-6)]GlcNAc
Summary of the method: as §1

[12] = biological target: GlcNAc(b1-2)Man(a1-3)[GlcNAc(b1-4)][GlcNAc(b1-2)Man(a1-6)]Man(b1-4)GlcNAc(b1-4)GlcNAc
Summary of the method: as §1

[13] = biological target: GlcNAc(b1-2)Man(a1-3)[GlcNAc(b1-4)][GlcNAc(b1-2)Man(a1-6)]Man(b1-4)GlcNAc(b1-4)[Fuc(a1-6)]GlcNAc
Summary of the method: as §1

[14] = biological target: GlcNAc(b1-2)[GlcNAc(b1-4)]Man(a1-3)[GlcNAc(b1-2)Man(a1-6)]Man(b1-4)GlcNAc(b1-4)GlcNAc
Summary of the method: as §1

[15] = biological target: GlcNAc(b1-2)[GlcNAc(b1-4)]Man(a1-3)[GlcNAc(b1-4)][GlcNAc(b1-2)Man(a1-6)]Man(b1-4)GlcNAc(b1-4)GlcNAc
Summary of the method: as §1

[16] = biological target: GlcNAc(b1-2)[GlcNAc(b1-4)]Man(a1-3)[GlcNAc(b1-4)][GlcNAc(b1-2)[GlcNAc(b1-6)]Man(a1-6)]Man(b1-4)GlcNAc(b1-4)GlcNAc
Summary of the method: as §1

[17] = biological target: GlcNAc(b1-2)[GlcNAc(b1-4)]Man(a1-3)[GlcNAc(b1-4)][GlcNAc(b1-2)[GlcNAc(b1-6)]Man(a1-6)]Man(b1-4)GlcNAc(b1-4)[Fuc(a1-6)]GlcNAc
Summary of the method: as §1

[18] = biological target: GlcNAc(b1-2)[GlcNAc(b1-6)]Man(a1-6)[GlcNAc(b1-2)Man(a1-3)]Man(b1-4)GlcNAc(b1-4)GlcNAc
Summary of the method: as §1

[19] = biological target: GlcNAc(b1-2)[GlcNAc(b1-6)]Man(a1-6)[GlcNAc(b1-2)Man(a1-3)]Man(b1-4)GlcNAc(b1-4)[Fuc(a1-6)]GlcNAc
Summary of the method: as §1

[20] = biological target: GlcNAc(b1-2)[GlcNAc(b1-6)]Man(a1-6)[GlcNAc(b1-4)][GlcNAc(b1-2)Man(a1-3)]Man(b1-4)GlcNAc(b1-4)GlcNAc
Summary of the method: as §1

[21] = biological target: GlcNAc(b1-3)Fuc
Summary of the method: as §1

[22] = biological target: GlcNAc(b1-3)Gal
Summary of the method: as §1

[23] = biological target: GlcNAc(b1-3)Gal(b1-3)GalNAc
Summary of the method: as §1

[24] = biological target: GlcNAc(b1-3)Gal(b1-4)Glc
Summary of the method: as §1

[25] = biological target: GlcNAc(b1-3)Gal(b1-4)GlcNAc
Summary of the method: as §1

[26] = biological target: GlcNAc(b1-3)Gal(b1-4)GlcNAc(b1-2)Man(a1-3)[GlcNAc(b1-3)Gal(b1-4)GlcNAc(b1-2)Man(a1-6)]Man(b1-4)GlcNAc(b1-4)GlcNAc
Summary of the method: as §1

[27] = biological target: GlcNAc(b1-3)Gal(b1-4)GlcNAc(b1-2)Man(a1-3)[GlcNAc(b1-3)Gal(b1-4)GlcNAc(b1-2)Man(a1-6)]Man(b1-4)GlcNAc(b1-4)[Fuc(a1-6)]GlcNAc
Summary of the method: as §1

[28] = biological target: GlcNAc(b1-3)Gal(b1-4)GlcNAc(b1-2)[GlcNAc(b1-3)Gal(b1-4)GlcNAc(b1-6)]Man(a1-6)[GlcNAc(b1-3)Gal(b1-4)GlcNAc(b1-2)Man(a1-3)]Man(b1-4)GlcNAc(b1-4)GlcNAc
Summary of the method: as §1

[29] = biological target: GlcNAc(b1-3)Gal(b1-4)GlcNAc(b1-3)Gal(b1-4)GlcNAc
Summary of the method: as §1

[30] = biological target: GlcNAc(b1-3)Gal(b1-4)GlcNAc(b1-3)Gal(b1-4)GlcNAc(b1-2)Man(a1-3)[GlcNAc(b1-3)Gal(b1-4)GlcNAc(b1-3)Gal(b1-4)GlcNAc(b1-2)Man(a1-6)]Man(b1-4)GlcNAc(b1-4)GlcNAc
Summary of the method: as §1

[31] = biological target: GlcNAc(b1-3)Gal(b1-4)GlcNAc(b1-3)Gal(b1-4)GlcNAc(b1-2)Man(a1-3)[GlcNAc(b1-3)Gal(b1-4)GlcNAc(b1-3)Gal(b1-4)GlcNAc(b1-2)Man(a1-6)]Man(b1-4)GlcNAc(b1-4)[Fuc(a1-6)]GlcNAc
Summary of the method: as §1

[32] = biological target: GlcNAc(b1-3)Gal(b1-4)GlcNAc(b1-3)Gal(b1-4)GlcNAc(b1-2)[GlcNAc(b1-3)Gal(b1-4)GlcNAc(b1-3)Gal(b1-4)GlcNAc(b1-6)]Man(a1-6)[GlcNAc(b1-3)Gal(b1-4)GlcNAc(b1-3)Gal(b1-4)GlcNAc(b1-2)Man(a1-3)]Man(b1-4)GlcNAc(b1-4)[Fuc(a1-6)]GlcNAc
Summary of the method: as §1

[33] = biological target: GlcNAc(b1-3)Gal(b1-4)GlcNAc(b1-3)Gal(b1-4)GlcNAc(b1-3)Gal(b1-4)GlcNAc(b1-2)Man(a1-3)[GlcNAc(b1-3)Gal(b1-4)GlcNAc(b1-3)Gal(b1-4)GlcNAc(b1-3)Gal(b1-4)GlcNAc(b1-2)Man(a1-6)]Man(b1-4)GlcNAc(b1-4)GlcNAc
Summary of the method: as §1

[34] = biological target: GlcNAc(b1-3)Gal(b1-4)GlcNAc(b1-3)Gal(b1-4)GlcNAc(b1-3)Gal(b1-4)GlcNAc(b1-2)Man(a1-3)[GlcNAc(b1-3)Gal(b1-4)GlcNAc(b1-3)Gal(b1-4)GlcNAc(b1-3)Gal(b1-4)GlcNAc(b1-2)Man(a1-6)]Man(b1-4)GlcNAc(b1-4)[Fuc(a1-6)]GlcNAc
Summary of the method: as §1

[35] = biological target: GlcNAc(b1-3)Gal(b1-4)GlcNAc(b1-3)Gal(b1-4)GlcNAc(b1-3)Gal(b1-4)GlcNAc(b1-2)[GlcNAc(b1-3)Gal(b1-4)GlcNAc(b1-3)Gal(b1-4)GlcNAc(b1-3)Gal(b1-4)GlcNAc(b1-6)]Man(a1-6)[GlcNAc(b1-3)Gal(b1-4)GlcNAc(b1-3)Gal(b1-4)GlcNAc(b1-3)Gal(b1-4)GlcNAc(b1-2)Man(a1-3)]Man(b1-4)GlcNAc(b1-4)[Fuc(a1-6)]GlcNAc
Summary of the method: as §1

[36] = biological target: GlcNAc(b1-3)Gal(b1-4)GlcNAc(b1-3)Gal(b1-4)GlcNAc(b1-3)Gal(b1-4)GlcNAc(b1-3)Gal(b1-4)GlcNAc(b1-2)Man(a1-3)[GlcNAc(b1-3)Gal(b1-4)GlcNAc(b1-3)Gal(b1-4)GlcNAc(b1-3)Gal(b1-4)GlcNAc(b1-3)Gal(b1-4)GlcNAc(b1-2)Man(a1-6)]Man(b1-4)GlcNAc(b1-4)GlcNAc
Summary of the method: as §1

[37] = biological target: GlcNAc(b1-3)Gal(b1-4)GlcNAc(b1-3)Gal(b1-4)GlcNAc(b1-3)Gal(b1-4)GlcNAc(b1-3)Gal(b1-4)GlcNAc(b1-2)Man(a1-3)[GlcNAc(b1-3)Gal(b1-4)GlcNAc(b1-3)Gal(b1-4)GlcNAc(b1-3)Gal(b1-4)GlcNAc(b1-3)Gal(b1-4)GlcNAc(b1-2)Man(a1-6)]Man(b1-4)GlcNAc(b1-4)[Fuc(a1-6)]GlcNAc
Summary of the method: as §1

[38] = biological target: GlcNAc(b1-3)Gal(b1-4)GlcNAc(b1-3)Gal(b1-4)GlcNAc(b1-3)Gal(b1-4)GlcNAc(b1-3)Gal(b1-4)GlcNAc(b1-2)[GlcNAc(b1-3)Gal(b1-4)GlcNAc(b1-3)Gal(b1-4)GlcNAc(b1-3)Gal(b1-4)GlcNAc(b1-3)Gal(b1-4)GlcNAc(b1-6)]Man(a1-6)[GlcNAc(b1-3)Gal(b1-4)GlcNAc(b1-3)Gal(b1-4)GlcNAc(b1-3)Gal(b1-4)GlcNAc(b1-3)Gal(b1-4)GlcNAc(b1-2)Man(a1-3)]Man(b1-4)GlcNAc(b1-4)[Fuc(a1-6)]GlcNAc
Summary of the method: as §1

[39] = biological target: GlcNAc(b1-3)Gal(b1-4)GlcNAc(b1-3)Gal(b1-4)GlcNAc(b1-3)GalNAc
Summary of the method: as §1

[40] = biological target: GlcNAc(b1-3)Gal(b1-4)GlcNAc(b1-3)GalNAc
Summary of the method: as §1

[41] = biological target: GlcNAc(b1-3)Gal(b1-4)GlcNAc(b1-3)[GlcNAc(b1-3)Gal(b1-4)GlcNAc(b1-3)]GalNAc
Summary of the method: as §1

[42] = biological target: GlcNAc(b1-3)Gal(b1-4)GlcNAc(b1-6)[Gal(b1-3)]GalNAc
Summary of the method: as §1

[43] = biological target: GlcNAc(b1-3)Gal(b1-4)GlcNAc(b1-6)[GlcNAc(b1-3)Gal(b1-3)]GalNAc
Summary of the method: as §1

[44] = biological target: GlcNAc(b1-3)Gal(b1-4)GlcNAc(b1-6)[GlcNAc(b1-3)]Gal(b1-4)GlcNAc
Summary of the method: as §1

[45] = biological target: GlcNAc(b1-3)GalNAc
Summary of the method: as §1

B1: HHA (Hippeastrum hybrid) (protein)
chain: MQQDCNLVLYDVDKPIWASNTGGLARDCHLNMQSDGNLVVYAPRNQVIWASNTQGENGNYVCILQKDRNVVIYGTARWATGTNIHGAGIVGVPGSAPQNTTAEMIKLVRKYLITK
- glycan array binding signal (z-score) [1]: -0.21
- glycan array binding signal (z-score) [2]: -0.091
- glycan array binding signal (z-score) [3]: -0.212
- glycan array binding signal (z-score) [4]: -0.215
- glycan array binding signal (z-score) [5]: -0.209
- glycan array binding signal (z-score) [6]: -0.21
- glycan array binding signal (z-score) [7]: -0.16
- glycan array binding signal (z-score) [8]: -0.203
- glycan array binding signal (z-score) [9]: 0.16
- glycan array binding signal (z-score) [10]: 0.836
- glycan array binding signal (z-score) [11]: -0.168
- glycan array binding signal (z-score) [12]: -0.204
- glycan array binding signal (z-score) [13]: -0.206
- glycan array binding signal (z-score) [14]: 0.101
- glycan array binding signal (z-score) [15]: -0.208
- glycan array binding signal (z-score) [16]: -0.217
- glycan array binding signal (z-score) [17]: -0.215
- glycan array binding signal (z-score) [18]: -0.211
- glycan array binding signal (z-score) [19]: -0.2
- glycan array binding signal (z-score) [20]: -0.218
- glycan array binding signal (z-score) [21]: -0.185
- glycan array binding signal (z-score) [22]: -0.201
- glycan array binding signal (z-score) [23]: 0.735
- glycan array binding signal (z-score) [24]: -0.208
- glycan array binding signal (z-score) [25]: -0.204
- glycan array binding signal (z-score) [26]: -0.203
- glycan array binding signal (z-score) [27]: -0.147
- glycan array binding signal (z-score) [28]: -0.104
- glycan array binding signal (z-score) [29]: -0.198
- glycan array binding signal (z-score) [30]: -0.132
- glycan array binding signal (z-score) [31]: -0.17
- glycan array binding signal (z-score) [32]: -0.16
- glycan array binding signal (z-score) [33]: -0.186
- glycan array binding signal (z-score) [34]: -0.153
- glycan array binding signal (z-score) [35]: -0.152
- glycan array binding signal (z-score) [36]: -0.148
- glycan array binding signal (z-score) [37]: -0.16
- glycan array binding signal (z-score) [38]: -0.124
- glycan array binding signal (z-score) [39]: 0.315
- glycan array binding signal (z-score) [40]: 0.005
- glycan array binding signal (z-score) [41]: -0.208
- glycan array binding signal (z-score) [42]: -0.204
- glycan array binding signal (z-score) [43]: -0.156
- glycan array binding signal (z-score) [44]: -0.185
- glycan array binding signal (z-score) [45]: 1.08
